# In patent publication US20050250127A1, “Methods for identifying modulators of MDA-7 mediated apoptosis” (priority 2002, published 2005):
# Tests used:
# [1] = system: C8161, DU-145, HO-1 cells; experiment: Ad.mda-7 killing in presence of tyrosine kinase inhibitors (MTT); type: cell-based, human; settings: DU-145, HO-1 and C8161
# Procedure: (§1) Cells were analyzed for cell viability by the MTT proliferation assay as described, 5-days after infection.
# (§2) MTT Assay. […] Treatment with inhibitors was initiated 4 h after infection. During a 5 to 7 day-treatment period, medium was changed twice with fresh inhibitor containing medium at day 3 and 6. […] The resulting absorbance measured at 595 nm is directly proportional to the number of viable cells.
# [2] = system: interferon responsive luciferase reporter constructs, Type I (IFN-α and β) and Type II/GAS (IFN-γ); experiment: Interferon responsive luciferase reporter test of inhibitor activity; type: cell-based; settings: 48-72 h exposure post-transfection
# [3] = system: U5A cells (lacking IFNAR2c); experiment: Apoptotic (A0) fraction, Table 1, U5A; type: cell-based, human
# Procedure: (§3) Annexin-V binding assay. Cells were trypsinized and washed once with complete media. Aliquots of cells (5×10^5) were resuspended in complete media (0.5 ml) and stained with FITC-labeled Annexin-V (Oncogene Research Products, Boston, Mass.) according to the manufacturer's instructions. Propidium Iodide (PI) was added to the samples after staining with Annexin-V to exclude late apoptotic and necrotic cells. FACS assay was performed immediately after staining. The percentage of the cells in the apoptotic (Ao) fraction was calculated using CellQuest software (Becton Dickinson).
# Cell lines functionally deficient for JAK/STAT signaling were analyzed for susceptibility to killing. A human fibrosarcoma cell line 2f TGH (parental) and corresponding mutant cell lines derived from it were utilized, including U1A (lacking Tyk2), U3A (IFN-unresponsive, lacking STAT 1), U4A (lacking JAK 1) and USA (lacking IFNAR2c)(kind gift of G. Stark, Cleveland Clinic, Ohio). […] First, the profile of IL20/IL22 receptor gene expression in the 2f TGH series of cell lines was determined as described above for other cancer types.
# [4] = system: C8161, PC-3, DU-145 cells; experiment: MTT: p38 MAPK inhibitor effect on Ad.mda-7 killing; type: cell-based, human; settings: SB203580 2 μM, Ad.mda-7 100 p.f.u./cell, MTT 5 days
# Procedure: as §2
# [5] = system: 2f TGH series of cell lines; experiment: MTT: p38 MAPK inhibitor effect on Ad.mda-7 killing in 2f TGH series; type: cell-based, human; settings: SB203580 2 μM, Ad.mda-7 150 p.f.u./cell, MTT 6 days
# Procedure: as §2
# [6] = system: DU-145 prostate cancer cells; experiment: Apoptotic fraction (A0) by FACS in DU-145; type: cell-based, human; settings: Ad.vec or Ad.mda-7 100 p.f.u./cell, 48 h
# Procedure: as §1, §3
SMILES,Ad.mda-7 induced apoptosis in presence of inhibitor [1],activity of Type I and Type II/GAS IFN reporters [2],proportion of cells with sub G0/G1 (A0) DNA content ([3]; inhibitor + Ad.mda-7) [%],proportion of cells with sub G0/G1 (A0) DNA content ([3]; inhibitor + Ad.vec) [%],inhibition of Ad.mda-7 killing [4],blockage of Ad.mda-7 killing [5],A0 (sub G0/G1) profile in presence of inhibitor [6]
N#C/C(=C\c1ccc(O)c(O)c1)C(=O)NCc1ccccc1 [AG490],did not prevent,repressed,33.08,16.25,,,
C[S+]([O-])c1ccc(-c2nc(-c3ccncc3)c(-c3ccc(F)cc3)[nH]2)cc1 (stereo not drawn) [SB203580],,,,,Partial inhibition of killing,blockage of killing was not obtained,
"N#CC(C#N)=Cc1ccc(O)c(O)c1 [AG18, tyrphostin AG18]",did not prevent,repressed,33.43,3.77,,,No overall profile change
O=c1c(-c2ccc(O)cc2)coc2cc(O)cc(O)c12 [Genistein],did not prevent,repressed,16.69,2.69,,,
